# Source: paper PMC9911399, “Two distinct binding modes provide the RNA-binding protein RbFox with extraordinary sequence specificity”
# Residue numbers refer to the chain shown, from its start. The list shows a part of the results.
# T1: RBFOX1 RRM (Homo sapiens, UniProt Q9NWB1 109-208)
# T1 sequence: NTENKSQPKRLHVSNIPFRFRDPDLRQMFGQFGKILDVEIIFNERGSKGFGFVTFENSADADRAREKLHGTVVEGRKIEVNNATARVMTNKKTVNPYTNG
# B1: GGACGCC (DNA:RNA)
# RNA: GGGAGACCGGAAUUCAGAUUGUCCGGACGCCUUAAAUCCCGUCGUAGCCACCA
# DNA 1: CAATCTGAATTCCGGTCTCCC
# DNA 2: TGGTGGCTACGACGGGATT
# B2: GUCGAAA (DNA:RNA)
# RNA: B1 RNA with G26U, A27C, C28G, G29A, C30A, C31A
# DNA 1: CAATCTGAATTCCGGTCTCCC
# DNA 2: TGGTGGCTACGACGGGATT
# B3: CGCCGAU (DNA:RNA)
# RNA: B1 RNA with G25C, A27C, C30A, C31U
# DNA 1: CAATCTGAATTCCGGTCTCCC
# DNA 2: TGGTGGCTACGACGGGATT
# B4: GUGAGCC (DNA:RNA)
# RNA: B1 RNA with G26U, A27G, C28A
# DNA 1: CAATCTGAATTCCGGTCTCCC
# DNA 2: TGGTGGCTACGACGGGATT
# B5: UGGCUCA (DNA:RNA)
# RNA: B1 RNA with G25U, A27G, G29U, C31A
# DNA 1: CAATCTGAATTCCGGTCTCCC
# DNA 2: TGGTGGCTACGACGGGATT
# B6: AACAAAA (DNA:RNA)
# RNA: GGGAGACCGGAAUUCAGAUUGUCCAACAAAAUUAAAUCCCGUCGUAGCCACCA
# DNA 1: CAATCTGAATTCCGGTCTCCC
# DNA 2: TGGTGGCTACGACGGGATT
# B7: CUGCAAA (DNA:RNA)
# RNA: B6 RNA with A25C, A26U, C27G, A28C
# DNA 1: CAATCTGAATTCCGGTCTCCC
# DNA 2: TGGTGGCTACGACGGGATT
# B8: GUAACGG (DNA:RNA)
# RNA: B1 RNA with G26U, C28A, G29C, C30G, C31G
# DNA 1: CAATCTGAATTCCGGTCTCCC
# DNA 2: TGGTGGCTACGACGGGATT
# B9: GUAUCGA (DNA:RNA)
# RNA: B1 RNA with G26U, C28U, G29C, C30G, C31A
# DNA 1: CAATCTGAATTCCGGTCTCCC
# DNA 2: TGGTGGCTACGACGGGATT
# B10: CUGCAUA (DNA:RNA)
# RNA: B6 RNA with A25C, A26U, C27G, A28C, A30U
# DNA 1: CAATCTGAATTCCGGTCTCCC
# DNA 2: TGGTGGCTACGACGGGATT
# B11: AUUGACC (DNA:RNA)
# RNA: B6 RNA with A26U, C27U, A28G, A30C, A31C
# DNA 1: CAATCTGAATTCCGGTCTCCC
# DNA 2: TGGTGGCTACGACGGGATT
# B12: GUACCUC (DNA:RNA)
# RNA: B1 RNA with G26U, G29C, C30U
# DNA 1: CAATCTGAATTCCGGTCTCCC
# DNA 2: TGGTGGCTACGACGGGATT
# B13: CACGCCU (DNA:RNA)
# RNA: B6 RNA with A25C, A28G, A29C, A30C, A31U
# DNA 1: CAATCTGAATTCCGGTCTCCC
# DNA 2: TGGTGGCTACGACGGGATT
# B14: AACAAUC (DNA:RNA)
# RNA: B6 RNA with A30U, A31C
# DNA 1: CAATCTGAATTCCGGTCTCCC
# DNA 2: TGGTGGCTACGACGGGATT
# B15: UCCAUUG (DNA:RNA)
# RNA: B6 RNA with A25U, A26C, A29U, A30U, A31G
# DNA 1: CAATCTGAATTCCGGTCTCCC
# DNA 2: TGGTGGCTACGACGGGATT
# B16: CCCCUUG (DNA:RNA)
# RNA: B6 RNA with A25C, A26C, A28C, A29U, A30U, A31G
# DNA 1: CAATCTGAATTCCGGTCTCCC
# DNA 2: TGGTGGCTACGACGGGATT
# B17: AUGCUGU (DNA:RNA)
# RNA: B6 RNA with A26U, C27G, A28C, A29U, A30G, A31U
# DNA 1: CAATCTGAATTCCGGTCTCCC
# DNA 2: TGGTGGCTACGACGGGATT
# B18: UAUACGG (DNA:RNA)
# RNA: B6 RNA with A25U, C27U, A29C, A30G, A31G
# DNA 1: CAATCTGAATTCCGGTCTCCC
# DNA 2: TGGTGGCTACGACGGGATT
# B19: ACCUAUG (DNA:RNA)
# RNA: B6 RNA with A26C, A28U, A30U, A31G
# DNA 1: CAATCTGAATTCCGGTCTCCC
# DNA 2: TGGTGGCTACGACGGGATT
# B20: AUCCUUA (DNA:RNA)
# RNA: B6 RNA with A26U, A28C, A29U, A30U
# DNA 1: CAATCTGAATTCCGGTCTCCC
# DNA 2: TGGTGGCTACGACGGGATT
# B21: ACGAAUC (DNA:RNA)
# RNA: B6 RNA with A26C, C27G, A30U, A31C
# DNA 1: CAATCTGAATTCCGGTCTCCC
# DNA 2: TGGTGGCTACGACGGGATT
# B22: AAGGGGC (DNA:RNA)
# RNA: B6 RNA with C27G, A28G, A29G, A30G, A31C
# DNA 1: CAATCTGAATTCCGGTCTCCC
# DNA 2: TGGTGGCTACGACGGGATT
# B23: GGAUAAG (DNA:RNA)
# RNA: B1 RNA with C28U, G29A, C30A, C31G
# DNA 1: CAATCTGAATTCCGGTCTCCC
# DNA 2: TGGTGGCTACGACGGGATT
# B24: UCGUGAU (DNA:RNA)
# RNA: B6 RNA with A25U, A26C, C27G, A28U, A29G, A31U
# DNA 1: CAATCTGAATTCCGGTCTCCC
# DNA 2: TGGTGGCTACGACGGGATT
# B25: CGACUCA (DNA:RNA)
# RNA: B1 RNA with G25C, G29U, C31A
# DNA 1: CAATCTGAATTCCGGTCTCCC
# DNA 2: TGGTGGCTACGACGGGATT
# B26: CAGGGCC (DNA:RNA)
# RNA: B1 RNA with G25C, G26A, A27G, C28G
# DNA 1: CAATCTGAATTCCGGTCTCCC
# DNA 2: TGGTGGCTACGACGGGATT
# B27: AAUCCUA (DNA:RNA)
# RNA: B6 RNA with C27U, A28C, A29C, A30U
# DNA 1: CAATCTGAATTCCGGTCTCCC
# DNA 2: TGGTGGCTACGACGGGATT
# B28: GUUUUGU (DNA:RNA)
# RNA: B1 RNA with G26U, A27U, C28U, G29U, C30G, C31U
# DNA 1: CAATCTGAATTCCGGTCTCCC
# DNA 2: TGGTGGCTACGACGGGATT
# B29: CAAUUUG (DNA:RNA)
# RNA: B6 RNA with A25C, C27A, A28U, A29U, A30U, A31G
# DNA 1: CAATCTGAATTCCGGTCTCCC
# DNA 2: TGGTGGCTACGACGGGATT
# B30: AUACACG (DNA:RNA)
# RNA: B1 RNA with G25A, G26U, G29A, C31G
# DNA 1: CAATCTGAATTCCGGTCTCCC
# DNA 2: TGGTGGCTACGACGGGATT
# B31: UUGACGC (DNA:RNA)
# RNA: B6 RNA with A25U, A26U, C27G, A29C, A30G, A31C
# DNA 1: CAATCTGAATTCCGGTCTCCC
# DNA 2: TGGTGGCTACGACGGGATT
# Target: T1, RBFOX1 RRM
# Experiment: EMSA; HiTS-Eq, 1 nM pool, 10 min; buffer printed only for the single-RNA assays: 10 mM Tris pH 7.5, 150 mM NaCl, 3.4 mM EDTA, 0.001% NP-40, 30 C
# Conditions: tags: His6 N-terminal (pET28a); label: 5' 32P
# How it was run: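 Purified RbFox RRM (wild type or mutant) was equilibrated for 10 min in 50 µL with 1 nM of a 5′-radiolabelled pool of RNA with 7 randomized nucleotides, its flanks annealed to DNA oligonucleotides, across increasing protein concentrations. Free RNA was separated by 8% native PAGE, excised, reverse-transcribed, PCR-barcoded and sequenced on an Illumina HiSeq 2500. Relative association constants came from read-count changes of each variant against the control reaction, normalised to the cognate motif.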
row,Binder,binding signal
1,B1,0.0124 KA relative to UGCAUGU
2,B2,0.0123 KA relative to UGCAUGU
3,B3,0.0073 KA relative to UGCAUGU
4,B4,0.0135 KA relative to UGCAUGU
5,B5,0.0141 KA relative to UGCAUGU
6,B6,0.000431 KA relative to UGCAUGU
7,B7,0.00818 KA relative to UGCAUGU
8,B8,0.00607 KA relative to UGCAUGU
9,B9,0.0176 KA relative to UGCAUGU
10,B10,0.017 KA relative to UGCAUGU
11,B11,0.00443 KA relative to UGCAUGU
12,B12,0.00416 KA relative to UGCAUGU
13,B13,0.00537 KA relative to UGCAUGU
14,B14,0.00146 KA relative to UGCAUGU
15,B15,0.0125 KA relative to UGCAUGU
16,B16,0.00249 KA relative to UGCAUGU

row,Binder,binding signal
1,B17,0.0118 KA relative to UGCAUGU
2,B18,0.00691 KA relative to UGCAUGU
3,B19,0.00417 KA relative to UGCAUGU
4,B20,0.000331 KA relative to UGCAUGU
5,B21,0.00464 KA relative to UGCAUGU
6,B22,0.0143 KA relative to UGCAUGU
7,B23,0.00929 KA relative to UGCAUGU
8,B24,0.00903 KA relative to UGCAUGU
9,B25,0.00407 KA relative to UGCAUGU
10,B26,0.0157 KA relative to UGCAUGU
11,B27,0.000556 KA relative to UGCAUGU
12,B28,0.0195 KA relative to UGCAUGU
13,B29,0.00892 KA relative to UGCAUGU
14,B30,0.00178 KA relative to UGCAUGU
15,B31,0.011 KA relative to UGCAUGU
